The campaign covered roughly 310,000 compounds. About 14,000 (4.5%) showed an effect of 50% or more. Effects have a minus sign here. The list shows a part of the results.
biological target: human ether-à-go-go-related gene (hERG) potassium channel (human, UniProt Q12809); assay: primary screen, population patch clamp on CHO cells stably expressing hERG
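Note: peak tail current of the secondary pulse compared with the same well before compound.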

Sequence of human ether-à-go-go-related gene (hERG) potassium channel (Q12809 whole entry, looked up): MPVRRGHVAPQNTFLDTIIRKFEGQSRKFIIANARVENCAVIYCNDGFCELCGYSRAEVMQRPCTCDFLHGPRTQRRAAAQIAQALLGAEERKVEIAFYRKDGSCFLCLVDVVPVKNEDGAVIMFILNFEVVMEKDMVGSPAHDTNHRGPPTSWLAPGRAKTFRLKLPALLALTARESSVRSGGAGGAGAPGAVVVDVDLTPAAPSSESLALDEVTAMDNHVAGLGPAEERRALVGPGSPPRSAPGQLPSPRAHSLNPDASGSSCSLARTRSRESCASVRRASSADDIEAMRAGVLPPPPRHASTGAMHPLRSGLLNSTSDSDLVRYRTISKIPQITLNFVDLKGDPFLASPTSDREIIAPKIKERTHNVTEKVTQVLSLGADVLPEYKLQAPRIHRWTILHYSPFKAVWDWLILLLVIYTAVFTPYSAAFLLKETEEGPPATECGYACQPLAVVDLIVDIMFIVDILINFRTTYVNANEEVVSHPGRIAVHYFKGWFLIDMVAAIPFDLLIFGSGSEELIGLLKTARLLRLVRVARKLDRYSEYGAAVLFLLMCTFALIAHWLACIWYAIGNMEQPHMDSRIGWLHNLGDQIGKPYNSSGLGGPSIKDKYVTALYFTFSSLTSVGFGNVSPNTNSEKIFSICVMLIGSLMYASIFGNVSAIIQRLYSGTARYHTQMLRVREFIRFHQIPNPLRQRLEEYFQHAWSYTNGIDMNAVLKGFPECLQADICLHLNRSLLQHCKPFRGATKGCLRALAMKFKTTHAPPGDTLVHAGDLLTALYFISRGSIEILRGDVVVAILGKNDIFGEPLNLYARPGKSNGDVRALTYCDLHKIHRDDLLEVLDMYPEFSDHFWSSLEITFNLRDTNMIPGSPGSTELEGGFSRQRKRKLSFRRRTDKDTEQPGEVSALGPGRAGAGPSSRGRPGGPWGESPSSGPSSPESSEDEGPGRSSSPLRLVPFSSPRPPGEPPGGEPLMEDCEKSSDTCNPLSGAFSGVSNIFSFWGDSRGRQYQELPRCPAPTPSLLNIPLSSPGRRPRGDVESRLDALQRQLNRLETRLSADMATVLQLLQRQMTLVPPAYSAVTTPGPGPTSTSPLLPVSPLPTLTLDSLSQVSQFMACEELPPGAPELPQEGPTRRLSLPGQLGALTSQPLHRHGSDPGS

Row | SMILES | hERG current change (%, negative = inhibition) at 10uM
1 | CCOP(=O)(Cc1ccc(C(C)(C)CC(C)=O)o1)OCC | 5.35%
2 | Cc1ccc(S(=O)(=O)Nc2c(C)n(C)n(-c3ccccc3)c2=O)cc1 | 9.73%
3 | COc1cc(/C=N/NC(=S)N/N=C/c2cc(OC)c(OC)c(OC)c2)cc(OC)c1OC | 17.6%
4 | Nc1cccc(CP(=O)(c2ccccc2)c2ccccc2)c1 | 14.6%
5 | C=CCc1cccc2cc(NC(C)=O)c(=O)oc12 | -10%
6 | CCCSC(=S)c1c(C)[nH]n(-c2ccccc2)c1=O | 16.5%
7 | CN(C)/C(CN1CCN(C=O)CC1)=C1\N=C(c2ccccc2)OC1=O | -40.9%
8 | Cc1ccc(OCc2cc(C(=O)NC(C)Cc3cccnc3)no2)cc1C (stereo not shown) | -91%
9 | C/C=C/Cn1cccc(C(=O)Nc2ccc(OC)cc2)c1=O | -11.6%
10 | C=CCNC(=O)NC(=O)COC(=O)COc1ccc(Br)cc1F | -4.28%
11 | CC1(C)Cc2ccccc2-c2[nH]c(=S)[nH]c(=O)c21 | 12.5%
12 | C=C(C)CSC1=C(C#N)C(c2ccsc2)CC(=O)N1 (stereo not shown) | -12.9%
13 | CCOc1ccc(S(=O)(=O)NCCC(=O)Nc2ncccc2C)cc1 | 6.56%
14 | Cc1csc(N)n1 | 7.04%
15 | Fc1ccc(-n2cc(CNCCc3ccncc3)c(-c3ccccc3Cl)n2)cc1 | -75.2%
16 | Cn1c(SCC#N)nc2ccccc2c1=O | -6.78%
17 | N/C(=N\OC(=O)CCC1CCCC1)c1ccc(Cl)cc1 | 12.2%
18 | COc1ccccc1CNC(=O)/C=C/c1ccc(S(=O)(=O)N2CCOCC2)cc1 | 0.0361%
19 | O=c1c(Oc2ccccc2Br)c(C(F)(F)F)oc2c(CN3CCCC3)c(O)ccc12 | -9.81%
20 | CCN(CC)c1ccc(/C=C2\C(=O)NC(=O)N(CC3CCCO3)C2=O)cc1 (stereo not shown) | 8.11%
21 | Cc1nc(SCc2ccccc2C)n[nH]1 | 8.26%
22 | CC(C)CN(C(=O)COC(=O)c1cc2c(s1)CCC2)C1CCS(=O)(=O)C1 (stereo not shown) | 8.4%

Row | SMILES | hERG current change (%, negative = inhibition) at 10uM
23 | COC(=O)c1cc2ccsc2n1CC(=O)Nc1cc(C)cc(C)c1 | 5.43%
24 | Cc1cc(OC(=O)c2c(C)cc(OC(=O)c3c(C)cc(O)cc3O)cc2O)cc(O)c1C(=O)O | 5.56%
25 | CC(C(=O)NCc1ccco1)n1ccc2cc(S(=O)(=O)N3CCCC3)ccc21 (stereo not shown) | 3.75%
26 | COc1ccc(OC)c2c1CCC1NCCOC21.Cl (stereo not shown) | 10.9%
27 | Cc1nc2nc(-c3cccnc3)[nH]n2c(=O)c1Cc1ccccc1 | -19.5%
28 | COc1cc(NC(=O)C2=CC(c3ccc(C)cc3)=NS(=O)(=O)N2C)cc(OC)c1OC | 2.52%
29 | COc1ccc(OC)c(C(=O)COC(=O)CNC(=O)c2ccccc2)c1 | -3.75%
30 | Cc1sc(-n2c(C)cc(C=C3C(=O)NC(=O)NC3=O)c2C)c(C#N)c1C | 2.51%
31 | Cc1ccc(C(=O)N/C(=C\c2cccs2)C(=O)NC2CCCCC2)cc1 | -47.2%
32 | Cc1c(NS(=O)(=O)c2cccc(C(=O)Nc3ccccc3)c2)c(=O)n(-c2ccccc2)n1C | -11%
33 | O=C(NC1CCCCCC1)C1CCN(S(=O)(=O)c2cccc3cccnc23)CC1 | -6.36%
34 | O=c1[nH]ncc2c3ccccc3n(Cc3ccc(F)cc3)c12 | 5.74%
35 | COc1ccc(-c2n[nH]c(=S)n2-c2ccc(C)cc2)cc1OC | 9.48%
36 | NC(=O)C1CCN(C(=O)CCC(=O)c2ccc(Br)cc2)CC1 | 5.22%
37 | O=C1CC(c2ccc(OCCCCCOc3ccc(C4CC(=O)NC4=O)cc3)cc2)C(=O)N1 (stereo not shown) | 8.33%
38 | Cc1ccc(N(C)S(=O)(=O)c2cccc(C(=O)Nc3nc4ccccc4[nH]3)c2)cc1 | 11.6%
39 | CCOC(=O)c1c(NC(=S)Nc2ccc(OCC)cc2)sc2c1CCN(C)C2 | -70.4%
40 | CC(Sc1nnc(C2CC2)n1N)C(=O)NC1CCCCC1C (stereo not shown) | 0.167%
41 | CC(NC(=O)CCn1nc(-c2ccc(Cl)cc2)ccc1=O)c1ccccc1 (stereo not shown) | -60.6%
42 | COC(=O)C1C2c3ccccc3OC1(C)N=c1s/c(=C/c3cnn(C)c3)c(=O)n12 (stereo not shown) | -11.9%
43 | Cc1ccc(SCc2cc(=O)[nH]c(N3CCOCC3)n2)cc1 | -0.0128%
44 | O=C(CNc1cccc(S(=O)(=O)N2CCCCCC2)c1)Nc1cccc([N+](=O)[O-])c1 | -71.9%

Row | SMILES | hERG current change (%, negative = inhibition) at 10uM
45 | CC(=O)CCc1oc2ccc(C)cc2c1-c1ccc(C)o1 | -7.62%
46 | CCCn1c(=O)cc(N)n(-c2ccc(OC(F)(F)F)cc2)c1=O | 6.67%
47 | CCOC(=O)C1CCN(Cc2ccccc2C(F)(F)F)CC1 | -4.86%
48 | CCOC(=O)C1CCCN(C2=NC(=O)/C(=C/c3ccc(N(C)C)cc3)S2)C1 (stereo not shown) | -24.9%
49 | CCOC(=O)C1CCN(C(=O)CN(c2ccc(OC)c(OC)c2)S(=O)(=O)c2ccccc2)CC1 | -14.7%
50 | O=C(NCCC1=CCCCC1)c1c(O)nc2sccn2c1=O | -23.7%
51 | CN1CCC(=NNC(=O)CN(c2cccc(Cl)c2)S(C)(=O)=O)CC1 | 19.7%
52 | Cc1cc(C)nc(Sc2ccc(/C=C(\C#N)C(=O)Nc3ccccc3)o2)n1 | 2.31%
53 | CCN(CC)S(=O)(=O)c1cccc(NC(=O)CN(C)Cc2cccc(OC)c2)c1.O=C(O)C(=O)O | -37.6%
54 | Cc1cc(C)c(C(=O)O)c(CC(C)(C)C(=O)O)c1 | 16.6%
55 | COc1ccc(-n2c(Cn3c(=O)sc4ccccc43)nnc2SC)cc1 | -14.2%
56 | CN(C)c1ccc(C(=O)Nc2ccc(S(=O)(=O)NC3=NCCCCC3)cc2)cc1 | -5.38%
57 | Cc1ccc(N2CC(C(=O)Nc3c(C)n(C)n(-c4ccccc4)c3=O)CC2=O)cc1 (stereo not shown) | 24.4%
58 | O=C(C1COc2ccccc2O1)N1CCN(Cc2ccc(Br)cc2F)CC1 (stereo not shown) | -23%
59 | O=C1NNC(=O)C2C3C=CC(C4CC34)C12 (stereo not shown) | -17.8%
60 | CCOC(=O)Cc1csc(N/C(=N/S(=O)(=O)c2cc(Br)ccc2OCC)c2ccccc2)n1 | -37.2%
61 | COc1nccnc1NS(=O)(=O)c1ccc(NS(=O)(=O)c2ccc(NC(C)=O)cc2)cc1 | 1.66%
62 | Cc1cc(N2CCOCC2)nc2ccc(NC(=S)N3CCCCC3C)cc12 (stereo not shown) | -48.8%
63 | CC(=O)c1ccccc1Oc1ncnc(N)c1[N+](=O)[O-] | 35.5%
64 | CCOc1ccc(CCNC(=O)Cn2nc(C)n3cccc3c2=O)cc1OCC | 25%
65 | COc1ccc(NS(=O)(=O)c2ccc(O)c(NC(=O)c3cc4c(C)nn(-c5ccc(F)cc5)c4s3)c2)cc1 | 11.4%
66 | CCC/C(O)=C1\C(=O)CC(C)(C)CC1=NCCO | 7.94%

Row | SMILES | hERG current change (%, negative = inhibition) at 10uM
67 | c1csc(-c2nn3c(C4COc5ccccc5O4)nnc3s2)c1 (stereo not shown) | 8.98%
68 | O=C(NCC1CCCCC1)c1cc(S(=O)(=O)N2CCCCC2)ccc1N1CCOCC1 | -7.89%
69 | O=C(CNS(=O)(=O)c1ccc(Br)s1)NCc1ccc2c(c1)OCO2 | -19.3%
70 | COc1cccc(-c2c(C(=O)N/N=C/c3cccs3)nnn2-c2nonc2N)c1 | 9.1%
71 | C/C(Cl)=C\CSc1nnc2n(N)c(=O)c3ccccc3n12 | -40%
72 | O=[N+]([O-])c1cc(-n2cnnn2)ccc1N1CCC(Cc2ccccc2)CC1 | -54.9%
73 | Cc1[nH]n(-c2cccc(Cl)c2)c(=O)c1/C=N/n1c(C)nc2ccccc2c1=O | 9.12%
74 | CCNC(=S)NNC(=O)c1cc(-c2ccccc2C)nc2ccccc12 | 18.3%
75 | COc1ccc(C2CC(=O)N(CC(=O)NCC3CCCO3)c3ccccc3S2)cc1OC (stereo not shown) | -11.9%
76 | Cn1cccc1-c1cc(C(=O)N2CCc3c([nH]c4ccccc34)C2c2ccccn2)[nH]n1 (stereo not shown) | 17.9%
77 | COc1ccc(NC(NC(=O)c2cccnc2)C(Cl)(Cl)Cl)cc1 (stereo not shown) | 29.3%
78 | CC(OC(=O)c1nc(Cl)ccc1Cl)C(=O)Nc1ccc2c(c1)OCCO2 (stereo not shown) | 8.99%
79 | O=Cc1c[nH]c2ncccc12 | 7.02%
80 | COc1ccc(C2N(c3ccc(Cl)cc3)N=C(C(C)=O)N(C)N2C(C)=O)cc1 (stereo not shown) | 6.85%
81 | S=c1[nH]nc(-c2ccccn2)n1/N=C/c1ccc(Cl)c(Cl)c1 | 21.7%
82 | CCN1CCN(C(=O)c2ccccc2N(Cc2ccccc2)S(C)(=O)=O)CC1 | -8.25%
83 | C[C@@H](NC(=O)c1nc[nH]c1C(=O)OCc1ccccc1)c1ccccc1 | 5.6%
84 | CC(C)C(c1nnnn1Cc1ccc(F)cc1)N1CCN(c2ccc(O)cc2)CC1 (stereo not shown) | -11.8%
85 | CCCCc1n[nH]c(=S)n1Cc1ccccc1 | -30.1%
86 | CC(C)=CC(=O)Nc1ccccc1C(N)=O | 12.9%
87 | Cc1nc(SCC(=O)NCc2ccco2)c2c(C)c(C)sc2n1 | -2.85%
88 | Cc1ccc(S(=O)(=O)N2CCOCC2)cc1C(=O)Nc1nc(-c2cccnc2)cs1 | 13.3%

From article PMC4336329 (PLoS ONE, 2015)
